# Laboratory results taken from article PMC6919601, “Identification of Plasmodium dipeptidyl aminopeptidase allosteric inhibitors by high throughput screening” (PLoS ONE, 2019).
# Several values for one entry are separate records, joined by “and”; a condition that tells them apart may be missing. Equal values may be shown once. About 230 (0.21%) of roughly 110,000 compounds showed an effect of 50% or more. Some of the results follow.
# Biological target: DPAP1 (Plasmodium falciparum, UniProt Q8IIJ9)
# Sequence (Q8IIJ9 whole entry, looked up): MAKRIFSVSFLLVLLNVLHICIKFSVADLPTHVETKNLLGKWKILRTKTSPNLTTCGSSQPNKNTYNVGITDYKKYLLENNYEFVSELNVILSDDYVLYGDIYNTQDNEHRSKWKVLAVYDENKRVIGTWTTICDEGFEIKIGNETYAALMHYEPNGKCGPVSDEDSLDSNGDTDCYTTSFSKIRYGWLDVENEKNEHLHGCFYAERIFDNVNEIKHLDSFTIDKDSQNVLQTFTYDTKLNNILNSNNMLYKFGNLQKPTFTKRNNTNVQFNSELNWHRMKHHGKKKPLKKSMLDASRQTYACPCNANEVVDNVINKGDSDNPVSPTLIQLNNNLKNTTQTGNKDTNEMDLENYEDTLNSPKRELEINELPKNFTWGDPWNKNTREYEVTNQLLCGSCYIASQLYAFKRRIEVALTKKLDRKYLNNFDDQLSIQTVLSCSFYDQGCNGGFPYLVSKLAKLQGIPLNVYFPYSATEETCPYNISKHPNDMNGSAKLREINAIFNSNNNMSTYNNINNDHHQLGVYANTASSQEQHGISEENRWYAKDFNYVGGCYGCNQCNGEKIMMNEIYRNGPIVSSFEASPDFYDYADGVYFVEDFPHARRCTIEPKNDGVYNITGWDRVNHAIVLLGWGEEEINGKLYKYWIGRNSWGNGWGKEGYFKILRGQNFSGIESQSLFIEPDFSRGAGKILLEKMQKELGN
# Assay: primary screen, percent inhibition; read by cleavage of a fluorogenic dipeptide substrate; higher = more effect of the substance
# Set-up: species or system P. falciparum D10 trophozoite lysates; single well
# 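Also: 30 min substrate incubation versus DMSO and 10 µM JCP410 controls.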
row,Structure (SMILES),% Inhibition @ 10 uM
1,CCc1c(C)c2ccc3c(c2oc1=O)CN(C(C)(C)C)CO3,-1.08%
2,N#C/C(=C/c1ccc(-c2ccc(Cl)cc2)o1)C(=O)O,0.00784%
3,COc1ccc(-n2c(C)c([N+](=O)[O-])c3ccc(O)cc32)cc1,-1.59%
4,COc1ccc(-c2c(C)nn(-c3ccccc3)c2/N=C/N2CCOCC2)cc1OC,-6.17%
5,Cc1cc(NC(=O)CSc2nc3ccccc3c3nc(CCn4c(C)nc5ccccc54)nn23)[nH]n1,-2.74%
6,Fc1cccc(Cl)c1CSc1nnc(-c2ccccc2)o1,6.11%
7,COc1cc2c(cc1OC)C(C#N)=NC(C)(C)C2,-2.03%
8,COc1ccccc1C(=O)Nc1c(C(=O)NCc2ccco2)sc2nc(C)cc(C)c12,-1.24%
9,Cc1nc(O)c(C(=O)/C=C/c2ccccc2Cl)c2c1CCCC2,1.83%
10,COc1ccc(-c2nn(C)c3sc(C(=O)NCCCOC(C)C)cc23)cc1OC,1.23%
11,CN1CCCN(Cc2ccc(Br)o2)CC1,-1.07%
12,CN(C)CCN(C)Cc1ccc(F)cc1,3.53%
13,COc1ccc(-c2noc(CN3CCC(Cc4ccccc4)CC3)n2)cc1,-3.68%
14,COc1ccc(OCC(=O)Nc2ccc(S(=O)(=O)N3CCOCC3)cc2)cc1,2.01%
15,COC(F)(C(=O)Nc1sc2c(c1C#N)CCCC2)C(F)(F)F (stereo not drawn),3.19%
16,CCSc1nnc(NC(=O)C2CC3CCC2C3)s1 (stereo not drawn),-3.74%
17,CCOc1ccc(C2=NN(c3cccc(F)c3)C(c3ccccc3F)C2)cc1 (stereo not drawn),-0.239%
18,COCCn1c(C)cc(C(=O)C(=O)Nc2nnc(-c3ccco3)s2)c1C,-8.56%
19,Cc1nn(CCCC(=O)NC2CCC(C)CC2)c(=O)c2nn(-c3ccccc3)c(C)c12 (stereo not drawn),2.48%
20,CCn1c(Cn2nnc(-c3ccccc3)n2)nnc1SCC(=O)N1CCOCC1,-2.19%
21,CC(C)CCNC(=O)COc1ccc(Cl)cc1Cl,3.65%

row,Structure (SMILES),% Inhibition @ 10 uM
1,O=C(COc1ccc(Br)cc1)Nc1ccc2c(c1)C(=O)NC2=O,-7.53%
2,O=C(c1nn2c(C(F)(F)F)cc(-c3ccccc3)nc2c1Cl)N1CCN(C(c2ccccc2)c2ccccc2)CC1,-5.28%
3,CCCCCCC(NC(=O)OCc1ccccc1)C(=O)NCC#N (stereo not drawn),-6.98%
4,Cc1cc(Cl)cc(Cl)c1OCC(=O)Nc1ccc(N2CCOCC2)cc1,-0.478%
5,Cc1cc(C)nc(NS(=O)(=O)c2ccc(NC(=O)c3ccccc3C)cc2)n1,-1.65%
6,CCN(CC)C(=O)Cn1cc(SCC(=O)Nc2cc(C)on2)c2ccccc21,-3.13%
7,Cc1ccc(S(=O)(=O)CCC#N)cc1C,1.43%
8,O=S(=O)(c1ccccc1)N1CCN(c2ccccc2)CC1,5.09%
9,COc1ccc(-c2cc(-c3ccccc3)nc(N)c2C#N)cc1,4.51%
10,CCOc1ccccc1-c1cc(C(=O)O)c2cc(Br)ccc2n1,-2.9%
11,COc1ccc2oc(=O)cc(CN3CCCCCC3)c2c1,4.83%
12,Cc1nc2cccnc2n1-c1ccc(C(=O)N2CCC(Cc3ccccc3)CC2)cc1,-1.75%
13,CC(C)Oc1ccccc1NC(=O)c1cc(F)c(F)cc1Cl,1.64%
14,CCCCN(Cc1ccccc1)C(=O)C1CCCN(S(=O)(=O)c2c[nH]cn2)C1 (stereo not drawn),1.26%
15,NC(=O)c1ccc(NC(=O)CNS(=O)(=O)c2cc(Cl)ccc2Cl)cc1,-2.83%
16,CCCCCC1CCC(c2ccc(-c3noc(-c4ccc(C5CCC(CCCCC)CC5)cc4)n3)cc2)CC1 (stereo not drawn),0.98%
17,CN1CCN(C(=O)N2c3ccccc3C=Cc3ccccc32)CC1,-2.42% and 1.57%
18,CCc1ccc(CN(C(=O)c2ccc(OC(C)C)cc2)C2CCS(=O)(=O)C2)cc1 (stereo not drawn),0.413%
19,CC(=O)c1cccc(NC(=O)c2ccc(C)c(Br)c2)c1,0.145%
20,CC1CCc2c(sc(NC(=O)c3cccnc3)c2C(N)=O)C1 (stereo not drawn),4.39%
21,O=C(O)c1ccc(CNS(=O)(=O)c2ccc(Cl)cc2)cc1,1.42%

row,Structure (SMILES),% Inhibition @ 10 uM
1,CC1CCN(S(=O)(=O)c2ccc3c(ccn3CCC(=O)NC(C)C)c2)CC1,1.06%
2,c1csc(C(N2CCOCC2)N2CCOCC2)c1,10.6%
3,COc1cccc(NC(=O)C2C(=O)N(C)c3ccccc32)c1 (stereo not drawn),26.3%
4,OC1=C2C(=Nc3ncnn3C2c2ccccc2)CCC1 (stereo not drawn),-2.06%
5,CCC1CCc2nc3sc(C(=O)Nc4nc(C)cs4)c(N)c3cc2C1 (stereo not drawn),25.1%
6,O=C(CN1C(=O)CSc2ncccc21)NCCCN1CCc2ccccc2C1,1.03%
7,CN1C(=O)c2ccccc2C(C(=O)N2CCC(c3ccccc3)C2)C1c1cccs1 (stereo not drawn),-3.27%
8,COc1cc(-c2nc(O)c3c4c(sc3n2)CCCC4)ccc1C,2.01%
9,COc1cccc(OC)c1C(=O)N1CCN(C(=O)Cc2ccccc2)CC1,-4.59%
10,CC1=CC2=NC(=O)/C(=C\c3cn(Cc4ccccc4F)c4ccccc34)C(=N)N2O1,-5.1%
11,O=C(CN(c1ccc2c(c1)OCCO2)S(=O)(=O)c1ccccc1)N1CCN(c2ccccc2)CC1,-0.425%
12,Cc1nn(-c2ccccc2)c2c1N(CC(=O)NCCc1cccs1)C(=O)CS2,-0.678%
13,NS(=O)(=O)c1ccc(CNC(=O)NC23CC4CC(CC(C4)C2)C3)cc1,4.88%
14,CCC(NS(=O)(=O)c1ccc(S(=O)(=O)N2CCOCC2)cc1)C12CC3CC(CC(C3)C1)C2 (stereo not drawn),-3.04%
15,Cc1nn(CCCC(=O)N(C)Cc2ccccc2)c(=O)c2cc3sccc3n12,-3.35%
16,Cc1ccccc1N1C(=O)C2CCCCC2C1=O (stereo not drawn),-0.0938%
17,CC1=C(C(=O)OC2CCCC2)C(c2ccc(F)cc2)NC(=O)N1 (stereo not drawn),3.44%
18,CCOc1ccc(NC(=O)c2c([N+](=O)[O-])cnn2C)cc1,-8.11%
19,CCOC(=O)N1CCN(C(=O)C(NS(=O)(=O)c2cccc3nsnc23)c2ccccc2)CC1 (stereo not drawn),-3.23%
20,Cc1cccc(Oc2coc3cc(O)ccc3c2=O)c1,-2.87%
21,CCC(=O)NCCn1c(C)cc2ccccc21,3.67%
